Experimental data taken from patent US20230125301A1 (published 2023).
Like-named read-outs stand apart in the source and are kept apart here.

Legend:
human PD-L1 [1] = target: T1, human PD-L1 (human, UniProt Q9NZQ7); experiment: FACS binding, CHO-K1 cells
human PD-L1 [2] = target: T1, human PD-L1; experiment: FACS binding, CHO-K1 cells; remark: listed apart in the source
T1 sequence (Q9NZQ7 19-290): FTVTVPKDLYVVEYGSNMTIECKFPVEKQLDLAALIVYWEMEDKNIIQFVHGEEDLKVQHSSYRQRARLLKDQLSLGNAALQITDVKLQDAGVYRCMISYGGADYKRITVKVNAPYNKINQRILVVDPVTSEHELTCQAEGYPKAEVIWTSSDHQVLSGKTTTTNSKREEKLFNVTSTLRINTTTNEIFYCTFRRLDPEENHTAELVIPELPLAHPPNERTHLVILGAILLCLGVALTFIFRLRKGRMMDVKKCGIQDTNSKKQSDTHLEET

B1: sdAb-PDL1b-IgG4PE (Fc fusion)
chain: EVQLVESGGGLVQPGGSLRLSCAASGRTFVTYGMGWFRQAPGKGREFVSAISWSGSSTSYGDSVKGRFTISRDNAKNTLYLQMNSLRPEDTAVYYCAAALGAVVYTTREPYTYWGQGTLVTVSS[letters of human IgG4 Fc with changes not shown]
**Q.** With B1 as the binder, how does the EC50 (human PD-L1 [1]) read?
**A.** The EC50 was 0.0558 nM.

B2: sdAb-PDL1a-IgG4PE (Fc fusion)
chain: EVQLVESGGGLVQPGGSLRLSCAASGRTFVTYGMGWFRQAPGKGREFVSAISWSGSMTSYGDSVKGRFTISRDNAKNTLYLQMNSLRPEDTAVYYCAAALGAVVYTTREPYTYWGQGTLVTVSS[letters of human IgG4 Fc with changes not shown]
**Q.** For B2, which EC50 (human PD-L1 [1]) is on record?
**A.** Its EC50 is 0.0712 nM.

**Q.** What about the EC50 (human PD-L1 [2]) of the same binder?
**A.** The EC50 was 0.333 nM.

B3: sdAb-PDL1c-IgG4PE (Fc fusion)
chain: EVQLVESGGGLVQPGGSLRLSCAASGRTFITYAIGWFRQAPGKGREFVSAISWSGSMTSYADSVKGRFTISRDNAKNTLYLQMNSLRPEDTAVYYCAAHRGAIAPIAQSVYTNWGQGTLVTVSS[letters of human IgG4 Fc with changes not shown]
**Q.** With B3 as the binder, how does the EC50 (human PD-L1 [1]) read?
**A.** The EC50 was 0.0683 nM.
